# Test results published in PubChem BioAssay (NCATS).
# Values joined by “and” are separate entries in the source; they are usually repeats but may differ in a detail not shown here. Equal entries are not always repeated. Inconclusive results, whose numbers are uncertain, are shown with a selection of clear calls. A potency beside an inconclusive call is a rough fit, not a confirmed value. Active and inactive are the calls of the source. Unless noted, calls follow the shape of the dose curve; as a rule, active = well fitted curve in the direction sought with a large enough effect; inconclusive = small, poorly fitted or top-dose-only effect, or another doubt; inactive = no such curve, though single readings can be large; an effect the other way counts as inactive or inconclusive.
# Assays:
# [1] = P-glycoprotein substrates identified in KB-8-5-11 adenocarcinoma cell line, qHTS therapeutic library screen (AID 1346987); also: nearly all actives have a fitted effect of over 65% in size
# Summary of the method: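 Luminescence from CellTiter-Glo, read 5 min after addition, quantified survival of KB-8-5-11 (P-gp-overexpressing) cells exposed to compounds for 72 h. AC50 was derived from concentration-response curves.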
# [2] = qHTS of pediatric cancer cell lines to identify multiple opportunities for drug repurposing: Primary screen for SK-N-MC cells (AID 1347093); conditions: SK-N-MC viability, CellTiter-Glo luminescence, 48 h; activity change, negative = cytotoxic: at 46 µM (top of the series);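 as to activity change, negative = cytotoxic: plate controls were DMSO neutral control for no effect and bortezomib for full effect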
# Summary of the method: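 Metabolically active cells were quantified by ATP-dependent luminescence (CellTiter-Glo, 15 min at room temperature) following 48 h treatment. Cells had been plated at 500-1,000 per well and settled for 5 h beforehand.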
# [3] = qHTS of pediatric cancer cell lines to identify multiple opportunities for drug repurposing: Primary screen for BT-12 cells (AID 1347101); also: nearly all actives have a fitted effect of over 25% in size;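 as to activity change, negative = cytotoxic: plate controls were DMSO for no effect and bortezomib positive control for full effect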
# Summary of the method: (§1)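 Cells (500-1,000/well) rested 5 h, then received compounds for 48 h; metabolically active cells were measured by CellTiter-Glo luminescence. Final concentrations spanned up to 46 µM (MIPE, 11-point) or 0.59 nM-46 µM (NPC, 8-point) in primary screens, 11-point in follow-ups.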
# [4] = qHTS of pediatric cancer cell lines to identify multiple opportunities for drug repurposing: Primary screen for OHS-50 cells (AID 1347103); also: nearly all actives have a fitted effect of over 40% in size
# Summary of the method: as §1
# [5] = Primary qHTS for small molecule stabilizers of the endoplasmic reticulum resident proteome: Secreted ER Calcium Modulated Protein (SERCaMP) assay (AID 1508630); conditions: SH-SY5Y GLuc-SERCaMP (Gaussia luciferase released on ER calcium loss) secretion, thapsigargin, luminescence; activity change, negative = inhibition: at 38.4 µM (top of the series); as to activity change, negative = inhibition: % is scaled to controls: 0 for no effect and ±100 for the full control effect
# Summary of the method: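 The SH-SY5Y reporter protocol was run at 3 concentrations up to 38.3 uM (primary) or 11 concentrations (follow-up): 16 h compound, 100 nM thapsigargin for 4 h, then extracellular luciferase luminescence.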
# [6] = A High-Content qHTS Against Drug Library for the Identification of Small Molecules that Inhibit DYT1 Early Onset Primary Dystonia-Associated Cell Pathology (AID 1645839; calls by dose curve)
# Summary of the method: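 High-content imaging quantified EGFP-TorsinA mislocalization in HEK293-derived cells inducibly expressing DYT1 mutant torsinA, after 48 h exposure to compound given together with tetracycline induction. Cell count served as a toxicity channel alongside %pathology.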
# [7] = Primary qHTS for inhibitors of nuclear receptor binding SET domain protein 2 (NSD2) in an isogenic RCH-ACV NSD2 p.E1099K mutant (9B) (AID 1645876); also: nearly all actives have a fitted effect of over 70% in size
# [8] = Primary qHTS for inhibitors of nuclear receptor binding SET domain protein 2 (NSD2) in an RCH-ACV wild type WT cells (2C) (AID 1645877); conditions: activity change, negative = cell killing: at 44.9 µM (top of the series); also: nearly all actives have a fitted effect of over 70% in size
# [9] = tested on: HEK293; experiment: Cytotoxic Profiling of Annotated Libraries Using Quantitative High-Throughput Screening (AID 1296008); conditions: Five cell lines viability, CellTiter-Glo ATP luminescence, 48-72 h; max response: stronger effect = lower value; also: nearly all actives have a fitted effect of over 60% in size; as to max response: % is scaled to controls: 0 for no effect and ±100 for the full control effect
# Summary of the method: (§2)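 Cytotoxicity was measured as CellTiter-Glo ATP luminescence, read after 10 min at room temperature. Compound treatment of the cells lasted 48 or 72 hr at 37 degrees Celsius in a qHTS format.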
# [10] = tested on: MKL-2; experiment: qHTS assay to identify novel small-molecules to repurpose for Merkel cell carcinoma treatment (AID 1296009); conditions: MCC and control cell lines, CellTiter-Glo viability, 72 h; activity change, negative = cytotoxicity: at 46 µM (top of the series); also: nearly all actives have a fitted effect of over 60% in size
# Summary of the method: (§3)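 Cell viability, measured as CellTiter-Glo luminescence, was normalized between DMSO and no-cell wells. The cells had been exposed to 8- or 11-point compound dilutions for 72 hr at 37 degree celsius.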
# [11] = tested on: WaGa; experiment: as above; conditions: MCC and control cell lines, CellTiter-Glo viability, 72 h; series mostly up to 46 µM
# Summary of the method: as §3
# [12] = qHTS of pediatric cancer cell lines to identify multiple opportunities for drug repurposing: Primary screen for Saos-2 cells (AID 1347097); conditions: Saos-2 viability, CellTiter-Glo ATP luminescence, 48 h; activity change, negative = cytotoxic: at 46 µM (top of the series); also: nearly all actives have a fitted effect of over 40% in size; as to activity change, negative = cytotoxic: % is scaled to controls: 0 for no effect and ±100 for the full control effect
# Summary of the method: (§4)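 Viability was measured as metabolically active cells after 48 hours of treatment, read by CellTiter-Glo luminescence. Compounds were tested at multiple final concentrations, giving concentration-response curves.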
# [13] = qHTS of pediatric cancer cell lines to identify multiple opportunities for drug repurposing: Primary screen for SK-N-SH cells (AID 1347098); conditions: SK-N-SH viability, CellTiter-Glo luminescence, 48 h; activity change, negative = cytotoxic: at 57 µM (top of the series); also: nearly all actives have a fitted effect of over 65% in size
# Summary of the method: as §1
# [14] = Drug repurposing screens with cells derived from glioblastoma tumor samples (AID 1345199); conditions: GBM patient neurospheres viability, ATP luminescence, 48 h; Potency: tumour line A unless noted; activity, negative = cell killing: at 46 µM (top of the series), tumour line A unless noted; also: nearly all actives have a fitted effect of over 40% in size
# Summary of the method: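 Primary testing used CD133+ neurospheres from four GBM patients, seven concentrations, 48 h exposure and ATP-based viability; confirmation added three slower-growing patient lines.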
# [15] = tested on: OV90; experiment: Primary qHTS to identify gynecologic anti-cancer compounds using libraries of approved drugs and bioactive compounds (AID 1345084); conditions: Gynecologic cancer cell panel viability, ATPlite luminescence, 48 h; series mostly up to 57.5 µM; also: nearly all actives have a fitted effect of over 55% in size
# Summary of the method: (§5)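 Cell viability after 48 h drug treatment, ATPlite luminescence readout; five doses.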
# [16] = qHTS of pediatric cancer cell lines to identify multiple opportunities for drug repurposing: Primary screen for NB-EBc1 cells (AID 1347095)
# Summary of the method: as §4
# [17] = tested on: NIH3T3; experiment: Cytotoxic Profiling of Annotated Libraries Using Quantitative High-Throughput Screening (AID 1296008); conditions: Five cell lines viability, CellTiter-Glo ATP luminescence, 48-72 h; max response: stronger effect = lower value; also: nearly all actives have a fitted effect of over 60% in size; as to max response: % is scaled to controls: 0 for no effect and ±100 for the full control effect
# Summary of the method: as §2
# [18] = tested on: SKOV3; experiment: Primary qHTS to identify gynecologic anti-cancer compounds using libraries of approved drugs and bioactive compounds (AID 1345084); conditions: Gynecologic cancer cell panel viability, ATPlite luminescence, 48 h; series mostly up to 57.5 µM; also: nearly all actives have a fitted effect of over 55% in size
# Summary of the method: as §5
# [19] = tested on: Zika virus NS2B-NS3 protease (unlinked complex); experiment: Primary screen GU Rhodamine qHTS for Zika virus inhibitors: Unlinked NS2B-NS3 protease assay (AID 1347159); also: nearly all actives have a fitted effect of over 60% in size
# Summary of the method: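 Percent inhibition came from the 15-min rise in Rhodamine110 fluorescence (1.5 microM substrate, ~15% conversion), normalized to no-inhibitor and no-enzyme wells and Hill-fitted. Unlinked protease, 25 nM, pH 8.0 Tris buffer; compounds up to 114 microM, 15-min preincubation.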
# Potency is read from the fitted curve at half-maximal effect; tags tell the direction and shape of the fitted curve.
compound,measurement,setting,value
CN(CCCN1c2ccccc2CCc2ccccc21)CC(=O)c1ccc(Cl)cc1,Potency,[1],"inconclusive: 29.1 µM [inhibitor, single point]"
same,Potency,[2],inactive
same,Potency,[3],"inconclusive: 38.9 µM [cytotoxic, single point]"
same,Potency,[4],"inconclusive: 19.5 µM [cytotoxic, partial curve]"
same,Potency,[5],"inconclusive: 31.6 µM [inhibitor, partial curve, poor fit] and inconclusive: 28.2 µM [inhibitor, single point]"
same,Potency,[6],"inconclusive: 10 µM [inhibitor, partial curve, poor fit]"
same,Potency,[7],"inconclusive: 29.9 µM [inhibitor, single point]"
same,Potency,[8],"inconclusive: 23.7 µM [inhibitor, single point]"
same,Potency,[9],"inconclusive: 23.7 µM [inhibitor, single point]"
same,Potency,[10],"inconclusive: 21.1 µM [inhibitor, partial curve, poor fit]"
same,Potency,[11],"inconclusive: 21.1 µM [inhibitor, single point]"
O=C(OCC(COC(=O)c1cccnc1)(COC(=O)c1cccnc1)COC(=O)c1cccnc1)c1cccnc1,Potency,[12],inactive
same,Potency,[13],"inconclusive: 0.0154 µM [cytotoxic, full curve, poor fit]"
same,Potency,[5],inactive
same,Potency,[7],inactive
same,max response,[9],inactive: -3.93%
same,Potency,[10],inactive
same,Potency,[11],inactive
same,Potency,[14],active: 14.1 µM
O=C(NCc1ccccc1)[C@H](Cc1ccccc1)NC(=O)[C@@H]1O[C@@H]1C(=O)NCCc1ccc(O)cc1,Potency,[9],"inconclusive: 37.2 µM [inhibitor, single point]"
same,Potency,[10],"inconclusive: 1.05 µM [inhibitor, single point]"
same,Potency,[11],"inconclusive: 18.7 µM [inhibitor, partial curve]"
O=C(OCCN1CCOCC1)c1cccnc1Nc1cccc(C(F)(F)F)c1,"activity change, negative = cytotoxic",[2],inconclusive: -53.4% [cytotoxic]
same,Potency,[3],inactive
same,Potency,[4],"inconclusive: 24.6 µM [cytotoxic, single point]"
same,Potency,[6],"inconclusive: 35.5 µM [inhibitor, single point]"
same,Potency,[8],inactive
same,Potency,[9],"inconclusive: 29.9 µM [inhibitor, single point]"
same,Potency,[11],"inconclusive: 33.5 µM [inhibitor, single point]"
same,Potency,[15],"inconclusive: 39.8 µM [cytotoxic, single point]"
CC(=O)N/N=C/c1ccc([N+](=O)[O-])o1,Potency,[2],"inconclusive: 33.5 µM [cytotoxic, single point]"
same,Potency,[16],"inconclusive: 26.6 µM [cytotoxic, single point]"
same,Potency,[12],"inconclusive: 15 µM [cytotoxic, single point]"
same,Potency,[13],"inconclusive: 21.7 µM [cytotoxic, partial curve]"
same,Potency,[3],"inconclusive: 34.7 µM [cytotoxic, single point]"
same,Potency,[4],"inconclusive: 38.9 µM [cytotoxic, single point]"
same,Potency,[17],"inconclusive: 33.5 µM [inhibitor, single point]"
same,Potency,[11],active: 23.7 µM
COc1ccc([C@@H]2Sc3ccccc3NC(=O)[C@@H]2O)cc1,Potency,[2],"inconclusive: 29.9 µM [cytotoxic, single point]"
same,Potency,[16],"inconclusive: 21.1 µM [cytotoxic, single point]"
same,Potency,[12],"inconclusive: 29.9 µM [cytotoxic, single point]"
same,Potency,[13],"inconclusive: 17.2 µM [cytotoxic, partial curve]"
same,Potency,[3],"inconclusive: 24.6 µM [cytotoxic, single point]"
same,Potency,[4],"inconclusive: 30.9 µM [cytotoxic, single point]"
same,Potency,[7],"inconclusive: 33.5 µM [inhibitor, single point]"
same,Potency,[8],"inconclusive: 23.7 µM [inhibitor, single point]"
same,Potency,[18],"inconclusive: 39.8 µM [cytotoxic, single point]"
Cn1c(=O)c2c(ncn2CC2OCCO2)n(C)c1=O,Potency,[13],inactive
same,Potency,[3],inactive
same,Potency,[5],"inconclusive: 2.24 µM [inhibitor, full curve]"
same,Potency,[7],"inconclusive: 11.8 µM [inhibitor, partial curve, poor fit]"
same,Potency,[8],"inactive and inconclusive: 11.8 µM [inhibitor, single point]"
same,outcome,[9],inactive
same,Potency,[11],inactive
O=C1[C@H](CC[C@H](O)c2ccc(F)cc2)[C@@H](c2ccc(O)cc2)N1c1ccc(F)cc1,Potency,[1],"inconclusive: 29.1 µM [inhibitor, single point] and inconclusive: 20.6 µM [inhibitor, single point]"
same,Potency,[3],"inconclusive: 38.9 µM [cytotoxic, partial curve, poor fit]"
same,Potency,[4],"inconclusive: 15.5 µM [cytotoxic, partial curve]"
same,Potency,[19],"inconclusive: 89.1 µM [inhibitor, single point]"
same,Potency,[5],"inconclusive: 25.1 µM [inhibitor, single point]"
same,Potency,[6],"inconclusive: 20 µM [inhibitor, partial curve, poor fit]"
same,Potency,[7],"inconclusive: 29.9 µM [inhibitor, single point] and inconclusive: 23.5 µM [inhibitor, single point]"
same,Potency,[8],"inconclusive: 33.5 µM [inhibitor, single point] and inconclusive: 16.3 µM [inhibitor, partial curve, poor fit] and inconclusive: 20.9 µM [inhibitor, partial curve]"
same,Potency,[9],"inconclusive: 26.6 µM [inhibitor, single point] and inconclusive: 16.4 µM [inhibitor, partial curve, poor fit]"
same,Potency,[15],inactive
same,Potency,[18],inactive
same,Potency,[14],"inconclusive: 14.1 µM [inhibitor, partial curve]"
